PubChem BioAssay AID624296 (National Center for Advancing Translational Sciences (NCATS), 2012)
Out of some 350,000 compounds screened, about 9,900 (2.8%) were called active. Inconclusive results, whose numbers are uncertain, are shown with a selection of clear calls. Calls follow the shape of the dose curve; as a rule, active = well fitted activation curve with a large enough effect; inconclusive = small, poorly fitted or top-dose-only effect; inactive = no such curve, though single readings can be large or run the other way. No potency is given beside an inconclusive call; the fits are too rough.

Test: A quantitative high throughput screen for small molecules that induce DNA re-replication in MCF 10a normal breast cells. Also: nearly all actives have a fitted effect of over 50% in size.
Conditions: MCF 10A DNA re-replication, Hoechst nuclear intensity, 48 h; series mostly up to 46.1 µM
Potency is read from the fitted curve at half-maximal effect; tags tell the direction and shape of the fitted curve.

**Q.** Which Potency does the source give for O=C(CSc1ccc2ccccc2n1)N1CCC(c2noc3ccc(F)cc23)CC1 here?
**A.** inconclusive [activator, partial curve]

**Q.** For C[C@@]12C(=O)Nc3cc(Cl)ccc3C(=O)N1[C@H]1c3cc(Br)ccc3OC[C@@H]1[C@@H]2c1ccccc1, which Potency is on record?
**A.** inconclusive [activator, partial curve]

**Q.** With COc1ccc(S(=O)(=O)NCC2CCCN(CC(C)(C)C)C2)cc1 (centres undefined) as the compound, how does the Potency read?
**A.** inconclusive [activator, single point]

**Q.** With COc1ccc(-c2csc(NC(C)c3nc4cc(Cl)c(Cl)cc4n3CCOCCO)n2)cc1 (centres undefined) as the compound, how does the Potency read?
**A.** inconclusive [activator, single point]

**Q.** With COC(=O)C1=CN(c2ccc(F)cc2)C=C(C(=O)OC)C1c1cccc(Br)c1 as the compound, how does the Potency read?
**A.** active: 14.6 µM

**Q.** Which Potency does the source give for CCCCCCOc1ccc(C(=O)O)cc1C#N here?
**A.** active: 18.4 µM

**Q.** Which Potency does the source give for O=C(O)CC/C(=N\Nc1ccc([N+](=O)[O-])cc1)c1ccccc1 here?
**A.** inconclusive [activator, single point]

**Q.** Which Potency does the source give for O=C(COc1ccc2ccccc2c1)Nc1ccc(Br)cc1C(=O)O here?
**A.** active: 9.2 µM

**Q.** With Cn1nnnc1SC1CC(=O)N(c2ccccc2)C1=O (centres undefined) as the compound, how does the Potency read?
**A.** inconclusive [activator, single point]

**Q.** For C=CCOc1ccc(C=CC(=O)c2c(O)c(OC)c(OC)c(OC)c2OC)cc1, which Potency is on record?
**A.** inconclusive [activator, single point]

**Q.** With Cc1ccc(-c2cc(-c3ccccc3)c3c(N)c(S(C)(=O)=O)sc3n2)cc1 as the compound, how does the Potency read?
**A.** inconclusive [activator, partial curve, poor fit]

**Q.** For Cn1c(-c2c(N)n(-c3ccccc3)c3nc4ccccc4nc23)nc2ccccc21, which Potency is on record?
**A.** active: 8.2 µM

**Q.** For O=C(C(c1ccccc1)c1ccccc1)N1CCCc2ccccc21, which Potency is on record?
**A.** inconclusive [activator, single point]

**Q.** With Cc1[nH]n(-c2ccccc2)c(=S)c1C=NCCCN=Cc1c(C)[nH]n(-c2ccccc2)c1=S as the compound, how does the Potency read?
**A.** inactive

**Q.** With CC(=O)SC1CC(=O)N(c2c(C)cccc2C)C1=O (centres undefined) as the compound, how does the Potency read?
**A.** inconclusive [activator, single point]

**Q.** For c1ccc(-c2ccc3c(c2)c2c4n3CCN=C4CCC2)cc1, which Potency is on record?
**A.** active: 8.2 µM

**Q.** For O=C(N/N=C/c1ccccn1)c1ccc(NC(=O)c2cccc([N+](=O)[O-])c2)cc1, which Potency is on record?
**A.** inconclusive [activator, partial curve, poor fit]

**Q.** For Cc1ccc(NC(=O)C(OC(=O)c2ccc(C=O)cc2)c2ccccc2)cc1Cl (centres undefined), which Potency is on record?
**A.** inactive

**Q.** With CCOC(=O)/C(C#N)=N\Nc1cc(Cl)ccc1OC as the compound, how does the Potency read?
**A.** inconclusive [activator, full curve]

**Q.** Which Potency does the source give for CC1CCN(S(=O)(=O)c2ccc([N+](=O)[O-])cc2)CC1 here?
**A.** inactive

**Q.** Which Potency does the source give for Cc1ccc(N2C(=O)[C@@H]3[C@H](C2=O)C2c4ccccc4C=CN2[C@@H]3C(=O)c2ccco2)c(C)c1 (some centres undefined) here?
**A.** inconclusive [activator, partial curve, poor fit]

**Q.** With COc1ccc(-n2c3c(cc(C(=O)NNc4ccccc4)c2=O)C(=O)CC(C)(C)C3)cc1 as the compound, how does the Potency read?
**A.** inconclusive [activator, partial curve, poor fit]

**Q.** Which Potency does the source give for Cc1ccccc1Oc1nc2c(C)cccn2c(=O)c1/C=C(\C#N)C(=O)Nc1c(C)n(C)n(-c2ccccc2)c1=O here?
**A.** active: 20.6 µM

**Q.** With Nc1nc(Nc2ccccc2)sc1C(=O)c1ccccc1 as the compound, how does the Potency read?
**A.** inconclusive [activator, single point]

**Q.** With Cc1ccc(NC(=S)NC(NC(=O)N(C)C)C(Cl)(Cl)Cl)cc1 (centres undefined) as the compound, how does the Potency read?
**A.** inconclusive [activator, partial curve, poor fit]

**Q.** With c1ccc(CN2CCC(Nc3nc(-c4cccs4)nc4ccccc34)CC2)cc1 as the compound, how does the Potency read?
**A.** inconclusive [activator, single point]

**Q.** Which Potency does the source give for CN(C)CCOC(=O)/C(=C/c1cn(C)c2ccccc12)NC(=O)c1ccccc1 here?
**A.** inconclusive [activator, full curve, poor fit]

**Q.** Which Potency does the source give for CC(C)(C)NC(=O)NC(=O)CN1CCN(c2ncc(C(F)(F)F)cc2Cl)CC1 here?
**A.** inconclusive [activator, partial curve, poor fit]

**Q.** Which Potency does the source give for CN(CC(=O)Nc1cccc(F)c1)C(=O)c1ccc(S(=O)(=O)N2CCCC2)cc1 here?
**A.** inactive

**Q.** For CCCCNC(=O)CCc1c(C)nc2nc(-c3cc(OC)cc(OC)c3)nn2c1C, which Potency is on record?
**A.** inconclusive [activator, single point]

**Q.** Which Potency does the source give for CCc1ccc(/C=N/NC(=O)c2cc(C)on2)s1 here?
**A.** inactive

**Q.** Which Potency does the source give for O=[N+]([O-])c1ccc(NN=Cc2cccc([N+](=O)[O-])c2)cc1 here?
**A.** active: 23.1 µM

**Q.** With O=C(Cn1c(=O)oc2ccccc21)N(Cc1ccccc1)C1CCS(=O)(=O)C1 (centres undefined) as the compound, how does the Potency read?
**A.** inconclusive [activator, single point]

**Q.** Which Potency does the source give for O=C1CC(N2CCCCCC2)C(=O)N1c1ccc(F)cc1 (centres undefined) here?
**A.** active: 13 µM

**Q.** Which Potency does the source give for CCOC(=O)c1c(NC(=O)CN2CCCc3ccccc32)sc(C)c1CC here?
**A.** inconclusive [activator, single point]

**Q.** With O=C(CNC(=O)c1ccco1)N/N=C/c1ccccc1[N+](=O)[O-] as the compound, how does the Potency read?
**A.** inactive

**Q.** With COc1ccc(/C=C/c2nnc(NC(=O)CC(C)C)s2)cc1 as the compound, how does the Potency read?
**A.** inconclusive [activator, single point]

**Q.** With Cc1cccc(NC(=O)CSCC(=O)N(C)CC(=O)Nc2cccc(F)c2)c1 as the compound, how does the Potency read?
**A.** inconclusive [activator, single point]

**Q.** For Cc1ccc(C2=NC(C)(C)N=C2SCC(=O)Nc2ccc(Cl)cc2)cc1, which Potency is on record?
**A.** inconclusive [activator, single point]

**Q.** For COc1ccc(C(=O)CC(=O)C(=O)NCCc2cccc(C)c2)cc1, which Potency is on record?
**A.** active: 18.4 µM

**Q.** Which Potency does the source give for Cc1nnc(C)c2c(C)n(C(C)c3ccccc3)c(C)c12 (centres undefined) here?
**A.** inconclusive [activator, partial curve, poor fit]

**Q.** With COc1ccc(CN2CCN(Cc3ccc(Br)cc3)CC2)c(OC)c1OC as the compound, how does the Potency read?
**A.** inconclusive [activator, partial curve]

**Q.** With CC1CC(C)CN(CCOc2cccc(Cl)c2Cl)C1 (centres undefined) as the compound, how does the Potency read?
**A.** inactive

**Q.** With Cc1nn(-c2ccccc2)nc1CNC(=O)C1CC1 as the compound, how does the Potency read?
**A.** inactive

**Q.** For CCOc1cc(/C=N/NC(=O)c2cc3c(ccc4ccccc43)o2)ccc1O, which Potency is on record?
**A.** inconclusive [activator, single point]

**Q.** With O=C(CSc1nc(-c2cccs2)cc(C(F)(F)F)n1)Nc1cc(OCC(F)(F)C(F)F)cc([N+](=O)[O-])c1 as the compound, how does the Potency read?
**A.** inconclusive [activator, single point]

**Q.** For CC(C)CC(C(=O)NC(C)(C)C)N(Cc1ccccc1Cl)C(=O)c1snc(C(N)=O)c1N (centres undefined), which Potency is on record?
**A.** inactive

**Q.** With Cc1cc(OC(=O)c2ccc3ccccc3c2)c([N+](=O)[O-])c(=O)[nH]1 as the compound, how does the Potency read?
**A.** inconclusive [activator, single point]

**Q.** With OC(COc1ccccc1)CN1CCN(CC(O)COc2ccccc2)CC1 (centres undefined) as the compound, how does the Potency read?
**A.** inconclusive [activator, partial curve, poor fit]

**Q.** For CCOC(=O)C(=CN=C(N)Nc1nc2ccccc2o1)C(=O)OCC, which Potency is on record?
**A.** inactive

**Q.** Which Potency does the source give for COc1ccccc1NC(=O)C(Sc1ccccc1)c1ccccc1 (centres undefined) here?
**A.** inconclusive [activator, partial curve, poor fit]

**Q.** With COc1cc(CNC2CCCCCCC2)cc(Cl)c1OCC(N)=O as the compound, how does the Potency read?
**A.** inconclusive [activator, single point]

**Q.** With COCc1c(C(N)=O)nnn1-c1nonc1N as the compound, how does the Potency read?
**A.** inconclusive [activator, single point]

**Q.** Which Potency does the source give for CC1(C(=O)NC2CCCCCCC2)CCC(=O)N1CCN1CCOCC1 (centres undefined) here?
**A.** inactive

**Q.** For Cc1nn(Cc2ccc(Cl)c(Cl)c2)c(C)c1NC(=O)c1cc(-c2ccc3c(c2)OCO3)on1, which Potency is on record?
**A.** active: 5.8 µM

**Q.** For COc1ccc(-c2cc(-c3ccc(O)cc3)nc(N)c2C#N)cc1OC, which Potency is on record?
**A.** inconclusive [activator, single point]

**Q.** With COc1cccc(-c2sc3ccc(OC)cc3c2-c2ccc(OCCN3CCCCC3)cc2)c1 as the compound, how does the Potency read?
**A.** inconclusive [activator, single point]

**Q.** For N#CC(C#N)=NNc1ccc(S(=O)(=O)N2CCCCC2)cc1, which Potency is on record?
**A.** active: 25.9 µM

**Q.** Which Potency does the source give for C=CCS/C(=N\n1cnc2ccccc2c1=O)N1CCCCC1 here?
**A.** inactive

**Q.** For Cc1sc2ncnc(N3CCN(C(=O)c4ccco4)CC3)c2c1C, which Potency is on record?
**A.** inconclusive [activator, partial curve, poor fit]

**Q.** For Cc1ccc(N2CC(C(=O)OCC(=O)c3c(N)n(CC(C)C)c(=O)n(C)c3=O)CC2=O)cc1 (centres undefined), which Potency is on record?
**A.** inconclusive [activator, partial curve, poor fit]

**Q.** With CC1CCc2c(sc3nc(SCC(=O)NCc4ccco4)nc(N)c23)C1 (centres undefined) as the compound, how does the Potency read?
**A.** inconclusive [activator, single point]

**Q.** With O=C(N/N=C/c1cccn1-c1ccc(O)cc1)c1cccc2ccccc12 as the compound, how does the Potency read?
**A.** inconclusive [activator, partial curve, poor fit]

**Q.** Which Potency does the source give for C=CCNc1nc(C(=O)OCC(=O)Nc2c(Cl)cccc2C(F)(F)F)cs1 here?
**A.** inactive

**Q.** Which Potency does the source give for CCOC(=O)c1cc(-c2ccco2)nc2c1c(C)nn2-c1ccccc1 here?
**A.** active: 9.2 µM

**Q.** Which Potency does the source give for O=C(Cc1csc(N2CCOCC2)n1)N/N=C/c1ccc(O)c(O)c1O here?
**A.** inactive

**Q.** With O=c1c2cc(Br)ccc2[nH]c(=S)n1Cc1cccnc1 as the compound, how does the Potency read?
**A.** inactive

**Q.** Which Potency does the source give for O=C(Nc1ccc(Oc2cccc3ccccc23)cc1)c1ccco1 here?
**A.** inconclusive [activator, partial curve, poor fit]

**Q.** Which Potency does the source give for Cc1cc(SCC#N)n2nc(C)c(-c3ccccc3)c2n1 here?
**A.** inconclusive [activator, partial curve, poor fit]
